From the antibiotic and cytotoxicity screens of Wong et al. (2023)
Some of the results follow.

Experiments:
HSkMC = human skeletal muscle cells; test: cytotoxicity call (relative viability < 0.9); conditions: 10 µM
S. aureus RN4220 = test: growth inhibition call (relative growth <= 0.2); conditions: 50 µM

Structure (SMILES)	cytotoxicity call (HSkMC)	growth inhibition call (S. aureus RN4220)
C[C@@H]1CN([C@@H](C)CO)C(=O)Cc2cc(NC(=O)NC3CCCCC3)ccc2O[C@H]1CN(C)Cc1ccc(Oc2ccccc2)cc1	inactive	inactive
C[C@@H]1CCCCO[C@@H](CN(C)C(=O)Cc2ccccc2)[C@H](C)CN([C@@H](C)CO)C(=O)c2cc(NS(=O)(=O)c3cccs3)ccc2O1	inactive	inactive
NNC(=S)NCc1cccs1	inactive	inactive
COc1ccc2c3c([nH]c2c1)[C@@H](CO)N(CC1CCCCC1)C[C@]13CCN(CC1)C(=O)Nc1cccc(c1)F	active	inactive
C[C@@H]1CN([C@@H](C)CO)C(=O)c2cccc(NC(=O)c3ccncc3)c2O[C@H]1CN(C)S(=O)(=O)c1cccs1	inactive	inactive
CC(=O)N[C@H]1[C@H](O[C@@H]2[C@@H](O)[C@H](C)O[C@@H](Oc3ccc4c(=O)c(-c5ccc(O)cc5)coc4c3)[C@@H]2O)O[C@H](CO)[C@@H](O[C@@H]2O[C@@H](C)[C@H](O)[C@@H](O)[C@H]2O)[C@@H]1O	inactive	inactive
O=C(C[C@H]1C[C@@H]2c3cc(NS(=O)(=O)c4ccccc4)ccc3O[C@@H]2[C@@H](CO)O1)NC1CCCCC1	inactive	inactive
C[C@@H]1CN([C@H](C)CO)C(=O)c2cccc(NC(=O)C3CC3)c2O[C@H]1CN(C)Cc1ccc(Oc2ccccc2)cc1	inactive	inactive
C[C@@]1(NC(=O)Cc2ccc(S(=O)(=O)N3CCOCC3)s2)CCS(=O)(=O)C1	inactive	inactive
C[C@@H]1CN([C@@H](C)CO)C(=O)c2c(c3ccccc3n2C)-c2ccccc2CO[C@H]1CN(C)Cc1ccc(Oc2ccccc2)cc1	inactive	inactive
CC(C)NC(=O)N(C)C[C@@H]1OCc2cn(nn2)CCCC(=O)N([C@@H](C)CO)C[C@H]1C	inactive	inactive
Cc1noc(C)c1NC(=O)N(C)C[C@@H]1Oc2c(NC(=O)Nc3cccc4ccccc34)cccc2C(=O)N([C@H](C)CO)C[C@@H]1C	inactive	inactive
CC(C)(C)[S@@](=O)N1Cc2cc(C(=O)N3CCCCC3)nc(-c3cccc(C4=CCCC4)c3)c2[C@H]1CCO	inactive	inactive
C[C@@H]1CN([C@@H](C)CO)C(=O)Cc2cc(NS(=O)(=O)c3cccs3)ccc2O[C@@H]1CN(C)S(=O)(=O)c1cn(C)cn1	inactive	inactive
COc1ccc(S(=O)(=O)N(C)C[C@H]2Oc3ccc(NC(=O)Nc4cccc5ccccc45)cc3C(=O)N([C@H](C)CO)C[C@H]2C)cc1	inactive	inactive
COc1cc(S(=O)(=O)NCCN2CCN(S(=O)(=O)c3cc(OC)c(Cl)cc3OC)CC2)c(OC)cc1Cl	inactive	inactive
COc1ccc(S(=O)(=O)N(C)C[C@@H]2Oc3ccc(NC(=O)C4CC4)cc3C(=O)N([C@@H](C)CO)C[C@H]2C)cc1	inactive	inactive
C[C@@H]1CN([C@@H](C)CO)C(=O)c2cccc(NC(=O)Nc3ccc4c(c3)OCO4)c2O[C@H]1CN(C)S(=O)(=O)c1cn(C)cn1	inactive	inactive
COc1ccc([Si](C)(C)[C@@H]2[C@@H](CCn3cc(CCO)nn3)O[C@]3(C(=O)N(C)c4ccccc43)[C@H]2C)cc1	inactive	inactive

Structure (SMILES)	cytotoxicity call (HSkMC)	growth inhibition call (S. aureus RN4220)
Cn1cnc(CCNC(=O)C[C@H]2CC[C@H]3[C@@H](COC[C@@H](O)CN3C(=O)Nc3ccc(C(F)(F)F)cc3)O2)c1	inactive	active
C[C@@H]1CCCCO[C@@H](CN(C)Cc2ccc(C(F)(F)F)cc2)[C@@H](C)CN([C@@H](C)CO)C(=O)c2cc(NC(=O)Nc3ccccc3)ccc2O1	inactive	inactive
CCC[C@@H](N[C@H]1CCS(=O)(=O)C1)C(=O)O	inactive	inactive
C[C@@H]1CN([C@@H](C)CO)C(=O)c2cc(NS(=O)(=O)c3cn(C)cn3)ccc2O[C@@H]1CN(C)S(=O)(=O)c1ccc(Cl)cc1	inactive	inactive
O=C(N[C@@H]1C=C[C@H](CC(=O)N2CCOCC2)O[C@@H]1CO)c1ccc2c(c1)OCO2	inactive	inactive
O=C(C[C@@H]1CC[C@@H]2[C@H](COC[C@@H](O)CN2Cc2cc(F)ccc2F)O1)N[C@H]1CCN(Cc2ccccc2)C1	inactive	inactive
O=C(N[C@@H]1CC[C@H](CCNS(=O)(=O)c2ccccc2)O[C@@H]1CO)c1cnccn1	inactive	inactive
C=C/C=C/[C@@H]1C(=C)CN([C@@H](Cc2ccccc2)C(=O)OC)[C@H]1[C@@H](O)CCn1cc(-c2ccc(C(=O)NO)s2)nn1	inactive	inactive
CNC[C@@H]1OCCCC[C@H](C)Oc2ccc(NC(=O)c3ccncc3)cc2C(=O)N([C@@H](C)CO)C[C@@H]1C	inactive	inactive
C[C@@H]1CN([C@@H](C)CO)C(=O)c2cc(NC(=O)CCCCCC(=O)Nc3ccccc3N)ccc2O[C@@H]1CN(C)CC1CCCCC1	inactive	inactive
C[C@H]1CN([C@@H](C)CO)C(=O)c2cccc(NC(=O)Nc3ccc4c(c3)OCO4)c2O[C@@H]1CN(C)Cc1ccc(-c2ccccc2)cc1	inactive	inactive
C[C@@H]1CN([C@@H](C)CO)C(=O)Cc2cc(NC(=O)Nc3ccc(F)cc3)ccc2O[C@@H]1CN(C)C(=O)Nc1ccc(C(F)(F)F)cc1	inactive	inactive
C[C@H](CO)N1C[C@H](C)[C@@H](CN(C)S(=O)(=O)c2ccc(Cl)cc2)Oc2ccc(NC(=O)Cn3cnnn3)cc2C1=O	inactive	inactive
Cn1c(=O)c2c(ncn2CC(=O)Nc2nc3ccccc3[nH]2)n(C)c1=O	inactive	inactive
C[C@H](CO)N1C[C@H](C)[C@H](CN(C)Cc2ccc(-c3ccccc3)cc2)Oc2c(NS(=O)(=O)c3ccccc3)cccc2C1=O	inactive	inactive
Cc1ccc(S(=O)(=O)N(C)C[C@@H]2OCCCC[C@@H](C)Oc3ccc(NC(=O)Nc4ccccc4)cc3C(=O)N([C@H](C)CO)C[C@H]2C)cc1	inactive	inactive
C[C@@H]1CN([C@@H](C)CO)C(=O)Cc2cc(NC(=O)CCCCCC(=O)Nc3ccccc3N)ccc2O[C@@H]1CN(C)Cc1ccccc1	inactive	inactive
COc1ccc(S(=O)(=O)Nc2ccc3c(c2)C(=O)N([C@@H](C)CO)C[C@@H](C)[C@@H](CN(C)C(=O)Nc2cccc4ccccc24)OCCCC[C@H](C)O3)cc1	inactive	inactive
CO[C@@H]1CN(C)C(=O)c2cc(NS(=O)(=O)CC(F)(F)F)ccc2OC[C@@H](C)N(Cc2ccccn2)C[C@@H]1C	inactive	inactive

Structure (SMILES)	cytotoxicity call (HSkMC)	growth inhibition call (S. aureus RN4220)
COc1ccc(NC(=O)Nc2ccc3c(c2)C(=O)N([C@H](C)CO)C[C@H](C)[C@H](CN(C)S(=O)(=O)c2ccc(Cl)cc2)OCCCC[C@@H](C)O3)cc1	inactive	inactive
C[C@H]1CN([C@@H](C)CO)C(=O)c2cccc(NC(=O)NC3CCCCC3)c2O[C@H]1CN(C)C(=O)Nc1cccc2ccccc12	inactive	inactive
O=C(c1ccccc1F)N1c2ccccc2Sc2ccccc21	inactive	inactive
CC(C)[Si]1(C(C)C)OCc2cc(-c3ccc(-c4ccc(Cl)c(Cl)c4)o3)nc(-c3ccc(Oc4ccccc4)cc3)c21	inactive	inactive
C[C@H](CO)N1C[C@H](C)[C@@H](CN(C)Cc2ccc(C(F)(F)F)cc2)Oc2c(NC(=O)Nc3ccc(C(F)(F)F)cc3)cccc2C1=O	inactive	inactive
C[C@@H]1CN([C@H](C)CO)C(=O)c2cccc(NS(=O)(=O)c3cccs3)c2O[C@@H]1CN(C)S(=O)(=O)c1ccc(F)cc1	inactive	inactive
C[C@H](CO)N1C[C@H](C)[C@@H](CN(C)C(=O)NC2CCCCC2)Oc2ccc(NC(=O)Cn3cnnn3)cc2C1=O	inactive	inactive
Cc1noc(C)c1S(=O)(=O)Nc1cccc2c1O[C@H](CN(C)C(=O)Nc1ccccc1)[C@H](C)CN([C@H](C)CO)C2=O	inactive	inactive
Cc1noc(C)c1S(=O)(=O)Nc1cccc2c1O[C@H](CN(C)C(=O)NC1CCCCC1)[C@H](C)CN([C@H](C)CO)C2=O	inactive	inactive
COc1ccc(CN(C)C[C@@H]2OCCCC[C@@H](C)Oc3ccc(NC(=O)Nc4ccc5c(c4)OCO5)cc3C(=O)N([C@H](C)CO)C[C@H]2C)cc1	inactive	inactive
C[C@@H]1CN([C@@H](C)CO)C(=O)c2cccc(NC(=O)Nc3ccc4c(c3)OCO4)c2O[C@@H]1CN(C)C(=O)Nc1ccc(C(F)(F)F)cc1	inactive	inactive
O=C(N[C@@H](c1ccccc1)c1ccc2ccccc2n1)C1CCN(C(=O)NC(c2ccccc2)c2ccccc2)CC1	inactive	inactive
C[C@@H]1CN([C@@H](C)CO)C(=O)Cc2cc(NC(=O)Nc3ccccc3)ccc2O[C@H]1CN(C)Cc1ccc(Oc2ccccc2)cc1	inactive	inactive
Cc1noc(C)c1S(=O)(=O)Nc1ccc2c(c1)CC(=O)N([C@@H](C)CO)C[C@@H](C)[C@H](CN(C)Cc1ccccc1)O2	inactive	inactive
C[C@@H]1CN([C@H](C)CO)C(=O)c2c(c3ccccc3n2C)-c2ccccc2CO[C@@H]1CN(C)Cc1ccc(O)cc1	inactive	inactive
C[C@H](CO)N1C[C@H](C)[C@H](CN(C)C(=O)C2CCCCC2)OCCCC[C@H](C)Oc2ccc(NC(=O)Nc3ccc(C(F)(F)F)cc3)cc2C1=O	inactive	inactive
CC(C)OC[C@H]1Cn2c(nc3c2c(=O)n(C)c(=O)n3C)O1	inactive	inactive
C[C@@H]1CN([C@@H](C)CO)C(=O)c2cc(C#Cc3cccc(F)c3)cnc2O[C@H]1CN(C)CC1CCOCC1	inactive	inactive
Cc1noc(C)c1NC(=O)Nc1ccc2c(c1)C(=O)N([C@H](C)CO)C[C@@H](C)[C@H](CN(C)C(=O)Nc1ccc(C(F)(F)F)cc1)OCCCC[C@H](C)O2	inactive	inactive
